In the supplement of paper PMC11417369:
Some of the results follow.

System: PfSIP2 AP2 domain 1 (GST-tagged)
Assay: gcPBM binding intensity (ln(normalized median fluorescence intensity)); higher = stronger DNA binding
Method in brief: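 DNA-binding domains from P. falciparum, fused to GST and produced in E. coli, were put on an Agilent 4 × 180k double-stranded probe array for 1 h in 1× PBS holding 1% milk, 0.2 mg/ml BSA, 0.5% salmon testes DNA and 0.03% Triton X-100. Probes were primer-extended, 36 bp long and drawn from intergenic genomic regions, with negative controls included. After Alexa488 anti-GST antibody detection and a 488 nm scan, binding intensity was set as the highest Masliner-normalised natural-log median intensity across replicate spots of either probe orientation.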

Sequence | gcPBM binding intensity (ln)
AAAAAAAAAAAAAAAGGTACACAAAACGGTATTATT [XGTACX_site7064] | 7.43
AACTCATAGGAGTGTGCACACAAAAAATTAAAAAAA [CACACA_site8996] | 9.24
TTTTTTTTTTTTGTCACACATATGGAATATATCTAT [CACACA_site5899] | 6.91
CTCAAAAAATATGAACGTACAAAATAAGTAATGACA [XGTACX_site590] | 7.17
TTTTTTTTTTTTTTTGCACACATTTTAATTATTTTT [CACACA_site341] | 7.04
AACTTTAAACCCTGAACACACACAAATACACCCAAA [CACACA_site7971] | 7.44
TATATATATATATATATATATATATATGTATATATG [XGTACX_negctrl_site242] | 9.63
ATAATCCACAAGCACACACACACACCCATATATATA [CACACA_site1268] | 7.51
CACCAAAATATATGTACATATGATAAATGTGAATAT [GTGCAC_negctrl_site83] | 7.24
AAAATTATCGTTATATGTACGCATCTTAATACGTAT [XGTACX_site4063] | 7.08
GTCTATATATTTTAGGTGCAACGTAAATGTAAAAAT | 10.7
TTTTACAATATTTTGTGTACTTATATTATGAGCTTA [XGTACX_site3287] | 7.04
TAACTTTTTTTTTTTTTTTTTTAACTTTTATGTAAT [GTGCAC_negctrl_site156] | 6.84
ATTTCCTTGAATGTTGCATGCTGTATTTTAATTAAA [TGCATGCA_site280] | 6.85
AAAAAAAGGAAATTTACACACACATATAATATACAT [CACACA_site3297] | 6.86
AAAAAAAAAAAGTGCACACATAAAAATATGATCTAA [CACACA_site572] | 11.5
TAAATTTTTCTAAGTGCATGTTAATTTTTCAATTTA [TGCATGCA_site906] | 9.5
TAGATTATTATACTAGTGCAAATTATTTAAGAAAAA | 8.09
ATATTATTTATAAAAGTGCAAAAATCACTTCTTTTA [GTGCAC_site9656] | 8.04
TTTAAAAAGTTATGAAGTACATATATATATATATAT [XGTACX_site2188] | 9.69

Sequence | gcPBM binding intensity (ln)
TAATATCGTATATGAGTGCAATATTTTAGATTTTGA | 7.91
TGCACGCACAGACACACACACAACTAAAAAATAATG [CACACA_site7250] | 7.33
AAAAAAAGGTAAAATTGTACATACGCACAAAAATAT [XGTACX_site2887] | 7.22
AATAAATTCATGAATTGTACGTAATGATAACATGAA [XGTACX_site2591] | 7.11
ATTTTCTTTTTTAAACGTACACATATTAAATATATA [XGTACX_site7773] | 7.53
TTTTTATTCCAGTATTCACACACGAATAACCACATA [CACACA_site1897] | 6.99
TTATAACTTTTCACAAGTACATATATATATGTATAA [XGTACX_site2306] | 7.18
ATATATATGTTTTTATGTACATATTTTTCTCCTTCA [XGTACX_site5899] | 7.17
TTTGGAAAGCGTGATTTTTGACAAACACAAAAAAAA [CACACA_negctrl_site651] | 6.81
ATTATTTTATGAGACATAAAAAAAAAAAAAAAAAAA [CACACA_negctrl_site1067] | 7.41
AGATGAGAGATATATACACACAATAATACCTATTTA [CACACA_site6542] | 6.89
TACAATATTTCGAGCTTGCACTTTTATTAAGTAAAT | 7.62
TATCTGTATTTGTATACACACAAATGTATTTATTTA [CACACA_site4830] | 7.03
TATACAGACAGACACACACACATATATAAATATGTA [CACACA_site6912] | 7.11
ATTATTATTTTTAACTGTACATAGATATAGATATCC [XGTACX_site8714] | 6.96
TAAGAAAAATATATATGTACACATATATATATATAT [XGTACX_site8542] | 9.09
TGTATGTTATATACAACACACAAAAAAAAACAAGTT [CACACA_site301] | 6.87
AACTTTTATACGGATACACACAAAAAAAAATAAAAA [CACACA_site6547] | 7.31
ATGTGTATACTAAGAACACACAAGTTACTTGGTGTT [CACACA_site6864] | 6.77
TATTTAAAAGATGAAAGTACACATTTAATTACATTT [XGTACX_site3781] | 6.65

Sequence | gcPBM binding intensity (ln)
TATATTTAACATACTTTTTTTTTTTTTTTTTTTTTT [CACACA_negctrl_site938] | 8.56
TAATTAGCATAATACACATGCATACATTTATATATA [TGCATGCA_site542] | 7.01
TACATATATCTATGTGTGCACTTATTTCCGGACAAA | 10.2
AAAAAAAAAAAACATACACACAAGAACAAAATATGA [CACACA_site3002] | 6.98
AGTCTTTTACATTGCACACACATTTCTTTCCTTTTG [CACACA_site2988] | 7.41
ATTAAATGATTCATATGTACATAAATAAATAAATAT [XGTACX_site2249] | 7.23
TTTCTTTTTAAAGTGTATTAAAATTGAATAAAAAGA [XGTACX_negctrl_site408] | 7.21
TATTAATATTTACACACATGCGCACACATAAATAAA [TGCATGCA_site609] | 9.31
TTTTTTTTTTTTGTCACACACCTTCATAAGAAAAAA [CACACA_site4779] | 7.1
TAAATCCGCAGGCACACACACATATTAAGAAAAAAA [CACACA_site6061] | 6.97
GTACAGATATTGTACATACACACCTATATAAATATC [CACACA_site5739] | 7.04
ATGAAAAAACATAATTGTACAAAAGTTGGATTCGAT [XGTACX_site7732] | 7.49
ATCATCACATAAGAAAATAGATAAAAAAAAAAAAAT [XGTACX_negctrl_site589] | 6.82
TGGGAACAATATATTTGTACTTAAATAAATAAAAAA [XGTACX_site6762] | 7.02
GAACAAAATGATAGAAGTACAAATATTTATTTTGTT [XGTACX_site7146] | 6.9
AAAGAGAAACAAAATTGTACATTATATTGTAGACGT [XGTACX_site976] | 7.06
TATATTTATAAGTGTACACATTATATAAATCCCTAT [CACACA_site6122] | 7.1
ATAGGTGAATACTAATATAAATTCAAGAGGGAAAAG [CACACA_negctrl_site720] | 6.89
